In all, about 270,000 compounds went through this assay and about 1,100 (0.41%) were called active. Roughly 3% stayed inconclusive and do not appear here. Calls come from the whole dose curve. This is a selection; strong and weak results do not stand in their true shares. Entries without a call were filed so in the source.
assay: qHTS Assay for Inhibitors of Influenza NS1 Protein Function; settings: activity, positive = more growth: at 46.1 µM (top of the series); note: actives are rising curves; nearly all actives have a fitted effect of over 50% in size
Source text: NIH Chemical Genomics Center [NCGC]
NIH Molecular Libraries Probe Centers Network [MLPCN]
Assay Submitter (PI): Daniel Engel
Influenza is a world-wide public health problem and emerging forms of the virus have the potential to cause a pandemic of equal or greater magnitude to the outbreaks recorded in 1918, 1957 or 1968. Vaccine development is proceeding and there also exist two classes of anti-influenza compounds. However these therapeutic modalities are neither fully effective nor widely enough available to fulfill global needs. In addition their potential usefulness against newly emergent strains is not known. Efforts are needed to develop novel agents against influenza virus, including broad-spectrum agents. Identification of small molecules that inhibit NS1 function either directly or by interfering with specific cellular pathways may be a key to increasing our defense against the virus.
We have miniaturized and optimized a cell based assay in which NS1 from influenza A is expressed in the budding yeast S. cerevisiae. NS1 is a multi-functional protein that counters the host innate immune response and facilitates viral versus cellular gene expression. Expression of NS1 causes a pronounced slow growth phenotype in yeast due to its intrinsic molecular activities. Small molecules that suppress the slow growth phenotype can be identified by a straightforward growth recovery assay using optical density (OD) as the measurement. The same yeast strain not expressing NS1 was used as positive control in the yeast growth recovery assay.
The yeast S. cerevisiae control and NS1 expressing cells were kindly supplied by laboratory of Dr. Daniel Engel, University of Virginia. Yeast starter cultures were stored in single use aliquots at -80C.
1. Yeast culture medium per liter: 1.2 g Yeast Nitrogen Base (w/out amino acids and Ammonium Sulphate), 5.0g Ammonium Sulphate, 0.77g -URA DO (drop-out) Supplement, adjust pH to 6.0. Adjust to 2% glucose prior to inoculating with yeast.
2. Yeast assay medium: 1.2 g Yeast Nitrogen Base (w/out amino acids and Ammonium Sulphate), 5.0g Ammonium Sulphate, 0.77g -URA DO (drop-out) Supplement, adjust pH to 6.0. Adjust to 2% D-galactose prior to inoculating with yeast.
1. Inoculate 100 mls of yeast culture medium with 1 ml of frozen yeast aliquote. Incubate overnight at 30C, 250RPM.
2. Harvest overnight culture at 4000 RPM and wash pellet with 15 mls H2O 3x.
3. Re-suspend washed pellet in 10 mls of yeast assay medium.
4. Prepare a 1:100 dilution of re-suspended culture in yeast assay medium.
5. Dispense 3.5 ul per well of reagents in step 4 in columns 2-48 in a black clear bottom 1536 well plate.
6. Dispense 3.5 ul per well of yeast assay medium in column 1 only.
7. Transfer 23 nl of compound per well.
8. Dispense 3.5 ul per well of yeast assay medium in columns 1-48.
9. Read plate using Viewlux protocol for optical density 600 (OD600) using excitation filter 600nm.
Potency is the fitted concentration of half-maximal effect.

Row | SMILES | activity, positive = more growth | Potency
1 | Cn1cccc1/C=C1\SC(=O)N(c2ccc(O)cc2)C1=O | 31.5% | –
2 | CCOc1ccc(OCc2ccc(C(=O)Nc3ccc(Cl)cn3)o2)cc1 | -30.1% | –
3 | CCc1nnc(NC(=O)CSc2ncc(-c3ccccc3)n2C)s1 | -46.8% | –
4 | Cc1nnc(-c2cccc(Br)c2)c2cn(-c3cccc(Br)c3)nc12 | – | active: 8.91 µM
5 | O=C1c2[nH]nc(-c3ccccc3O)c2C(c2ccccc2)N1Cc1ccco1 (stereo unspecified) | -126% | –
6 | Cc1noc(NS(=O)(=O)c2ccc(NC(=O)COc3ccc(Cl)cc3Cl)cc2)c1C | -37.2% | –
7 | CCCCn1c(O)c(C(CC)=Nc2ccc(OCC)cc2)c(=O)[nH]c1=O | -30.8% | –
8 | COc1ccc(CCNC(=O)CN(c2ccccc2OC)S(=O)(=O)c2ccc(C)cc2)cc1 | -43% | –
9 | O=C(O)c1cn(-c2ccccc2)nc1-c1ccc(F)cc1 | -47% | –
10 | Cc1ccc(Sc2ccc(NC(=O)CCl)cc2)c(C)c1 | -61.9% | –
11 | Cc1ccccc1OCC(=O)NCCC1=CCCCC1 | -39.8% | –
12 | CCOc1ccc(NC(=O)c2cccnc2C(=O)O)cc1 | – | active: 4.47 µM
13 | O=C(O)CCC(=O)N1CCN(c2nc(-c3ccccc3Cl)c3cc(Br)ccc3n2)CC1 | -80.1% | –
14 | COc1ccc(C2CC(c3ccccc3)=NN2c2ccc(C(N)=O)cc2)cc1 (stereo unspecified) | -101% | –
15 | Nc1nnc(-c2cc3ccccc3oc2=O)s1 | -13.8% | –
16 | O=C(Nc1cnn(Cc2ccc(Cl)cc2Cl)c1)c1noc2c1CCCC2 | -66.2% | –

Row | SMILES | activity, positive = more growth | Potency
17 | Sc1oc(-c2ccccc2)cc1C=Nc1ccccc1 | inactive: -48% | –
18 | COc1ccc(Cl)c(Cn2c(NCc3ccccn3)nc3c2c(=O)n(C)c(=O)n3C)c1 | -51% | –
19 | CC(C)C(NS(=O)(=O)c1ccc2c(c1)Cc1cc(S(=O)(=O)NC(C(=O)O)C(C)C)ccc1-2)C(=O)O (stereo unspecified) | 30.4% | –
20 | CC1=CC(C)(C)N(C(=O)c2ccccc2)c2ccccc21 | -44.5% | –
21 | Cc1ccc(OCc2n[nH]c(=S)n2-c2ccc(Br)cc2)cc1 | -112% | –
22 | CCCn1c2c(c(O)c(C(=O)Nc3nccs3)c1=O)CCCC2 | -69.8% | –
23 | CCOC(=O)C(Nc1ccc2ccccc2c1)C(=O)OCC | -44.6% | –
24 | CCCCn1nnc(N(C(=O)c2cccs2)C(=O)c2cccs2)n1 | inactive: -43% | –
25 | O=C(O)c1ccc(NC(=S)NC(=O)C(c2ccccc2)c2ccccc2)cc1 | -47.9% | –
26 | Cc1ccc(N/C(C(Cl)=C(Cl)Cl)=C(/Cl)[N+](=O)[O-])c(C)c1 | inactive: -85.7% | –
27 | O=C(Nc1scc(-c2ccc(F)cc2)c1C(=O)O)c1ccco1 | inactive: -138% | –
28 | COC(=O)CCC(=O)Nc1cccc(Br)c1 | -49.7% | –
29 | Cc1nc2ccc(NC(=O)c3cc([N+](=O)[O-])cc([N+](=O)[O-])c3Cl)cc2s1 | 58.5% | –
30 | O=C(CN1CCN(S(=O)(=O)c2ccccc2)CC1)Nc1ccc2c(c1)CCC2 | -59.2% | –
31 | CCc1[nH]c(=O)c(C#N)c2c1CCCC2 | 43.1% | –
